To fix the notation:
B1: chr10:123051058:123051159:+|CDS|ENSG00000196177|unk|FALSE|unique (ssRNA)
RNA: GGGAGUUCUACAGUCCGACGAUCCAAGUGGCUCACGUGGCCACCCAGCUGGAAGCUGCAAGAUUACUAACAUACAAUGCUGCUAGGCUUUUAGAAGCUGGAAAGCCAUUCAUAAAAGAAGCGUCAAUGGCCAAAUACUAUGCACAACAGAGGAUUGAGCAUCA
B2: ENSG00000198589:be:win_1551|CDS|ENSG00000198589|bound_else_gene|NA|bound_elsewhere_windowed (ssRNA)
RNA: GGGAGUUCUACAGUCCGACGAUCACAGAUGCUUGCCUGUAAGGGCUUCUUGGUAAUAGGAUAUAGCCUUGAAAAGUCUUCCAAAUCUCAUGUUAGCAGAGCAGUACUUGAACUUUGCCUUGCAUUUUCAAAAUAUCUGAGUAACAACAGAGGAUUGAGCAUCA
B3: chr11:92354873:92354974:+|CDS|ENSG00000165323|unk|total|mutant (ssRNA)
RNA: GGGAGUUCUACAGUCCGACGAUCGUCACUCUUAAAGUUUUUUCCGAUGAUGUCAAUGACUGCUCCCCAGCUUUCAUUCCCAGCCGCUACCGUGUGAAGGUUCUUGAAGAUCUCCCUGUUGGCACUGUCAUUGCUUGGCUUGAGCAACAGAGGAUUGAGCAUCA
B4: ENSG00000070961:be:win_701|CDS|ENSG00000070961|bound_else_gene|NA|bound_elsewhere_windowed (ssRNA)
RNA: GGGAGUUCUACAGUCCGACGAUCACGAUCUUAAAAUUGAUGAAAGCUCAUUGACUGGUGAAUCAGAUCAUGUUAAAAAGUCUUUAGAUAAGGAUCCCUUACUUCUAUCAGGUACUCAUGUAAUGGAAGGCUCUGGAAGAAUGGCAACAGAGGAUUGAGCAUCA
B5: chr1:15430058:15430159:+|3pUTR|ENSG00000142634|msi1|FALSE|unique (ssRNA)
RNA: GGGAGUUCUACAGUCCGACGAUCCCUGGAAGCUACGCGGACUUGCAGAGGUUUUAUUUUUUGGCCUUAGAAUCUGCAGAAAUUAGGAGGCACCGAGCCCAGCGCAGCAGCCUCGGACCCGGAUUGCGUUUGCCUUAGCGGAUACAACAGAGGAUUGAGCAUCA
B6: chr5:144162273:144162391:-|CDS|ENSG00000145817|unk|total|mutant (ssRNA)
RNA: GGGAGUUCUACAGUCCGACGAUCCCCACCGGCUGGCAAAAUCCAGUUUGGCUAUGUAUACGGGAUCAGUGCAAUUGGAUGUCCCGGAAUGUUUUGUUUAUUAAACUUAAUGAGUAUGACAGGUGUUUCAUUUGGUUGUGUGGCCAACAGAGGAUUGAGCAUCA
B7: chr4:42087128:42087229:+|3pUTR|ENSG00000014824|msi1|total|mutant (ssRNA)
RNA: GGGAGUUCUACAGUCCGACGAUCAUUUUGUAUAAUACCGUUCAUACUGUGUCUGUGAGUUUCUUCAGUUACAAAUGGGCAUUCCGUACCGUUAUAUUGACUAUAACAUGUAAGUAAACCGCUUUCUACUGACCCUAAGUUAUCCAACAGAGGAUUGAGCAUCA
B8: chrX:115010634:115010735:-|CDS|ENSG00000123496|msi1|total|mutant (ssRNA)
RNA: GGGAGUUCUACAGUCCGACGAUCUGGAUCAUCAGAGAACAAGCCUAUCAGAUCCAGUUAUUUCACUUUUCAGCUUCAAAAUACCGGUGAUGUAAACCAACAAACAACUUCAAAUUCAUUGUUUCCCGUUCCGGCCAUUUACAACAACAGAGGAUUGAGCAUCA
B9: chr2:110123602:110123703:-|3pUTR|ENSG00000144061|unk|total|mutant (ssRNA)
RNA: GGGAGUUCUACAGUCCGACGAUCAUCCUCCACGAUUACGUGAAUAAAAUGAUGGAACCAAAAAUCACUGUCACUUUACAACUCCGGUUUUACUCUUUUCUUUCUACAGACCAUAUUUUUAAAGAAAUGUUUAUACAAUAAUUUCAACAGAGGAUUGAGCAUCA
B10: chr18:68676332:68676434:-|3pUTR|ENSG00000166479|msi1_unk|FALSE|overlapping (ssRNA)
RNA: GGGAGUUCUACAGUCCGACGAUCAUCAAGAUUAUGAGGUUAAAAAUAAUGUGGUUUUAUAUAGCAUAGUGGUUUUAUUUUGUUAGUUAUUUUUAAAGGAGAAGAAAUGUUACUUUUUAACUUUAUACUCAGUUGCAUUAUCAUCAACAGAGGAUUGAGCAUCA
B11: chr1:113128187:113128288:+|3pUTR|ENSG00000198799|unk|FALSE|unique (ssRNA)
RNA: GGGAGUUCUACAGUCCGACGAUCUCAUACUUAUUUUCAAUCCUAAGUGUUCUCCCAUGGGCAGCAGCACUUCUUGAGCUGUUUAGUACUGCCACACCUUUUUAUGUCUUUACUAUGUCAGCCUCUGAUCAUUUUCACUUUGAACAACAGAGGAUUGAGCAUCA
B12: chrX:8790794:8791172:-|three_prime_utr|ENSG00000183304|control|control|control (ssRNA)
RNA: GGGAGUUCUACAGUCCGACGAUCCAACUUGAGCUACAGUAAACUACAUGACAGUGUUUUGAUAAUUGUUGUAUAAAUCGGUAUAGCUCCUCUGUCACUUGUCUGUUAAAUGCCAGACCUCGUUUCUAUGAUCUGUUGAAUGAACAACAGAGGAUUGAGCAUCA
B13: chr6:36925625:36925726:+|3pUTR|ENSG00000198663|msi1|total|mutant (ssRNA)
RNA: GGGAGUUCUACAGUCCGACGAUCACUUCUCAAGUUAAUUUUGAUAAGCAGAAUCUACUACUGGCCAGAGCGACAGGAGUGGCCCGGGGUUGCCAGCCAGUCCCUUUCUGAUGAUCAAGGCCCUGCACAGCAGGAUGCCACAGGCAACAGAGGAUUGAGCAUCA
B14: chr15:99139316:99139576:-|CDS|ENSG00000103852|control|control|control (ssRNA)
RNA: GGGAGUUCUACAGUCCGACGAUCCUCUCAUUCAAGGGAGACCUUAGUUUCCUGCUCUCAGCGACACUUCCAUAGCCUCAUGAUAGCUGCUUGGUGUUCUACAGUGUCUCCAGAUCCAGACCCUCUUAUAUGGACCGCAGGACACAACAGAGGAUUGAGCAUCA

This is one part of the list.

In this assay the target is MSI1 full-length (mouse, UniProt Q61474 1-362). As to the kind of experiment: nsRBNS (natural sequence RNA bind-n-seq); RBNS binding buffer (assumed for nsRBNS): 25 mM Tris pH 7.5, 150 mM KCl, 3 mM MgCl2, 0.01% Triton X-100, 500 ug/ml BSA, 20 U/ml SUPERase-In, 4 C; UNK is unkempt and MSI1 is Musashi-1; names of the RNAs are library labels; protein concentration not given here; high values mean tight binding.
UniProt Q61474, sequence (Q61474 whole entry): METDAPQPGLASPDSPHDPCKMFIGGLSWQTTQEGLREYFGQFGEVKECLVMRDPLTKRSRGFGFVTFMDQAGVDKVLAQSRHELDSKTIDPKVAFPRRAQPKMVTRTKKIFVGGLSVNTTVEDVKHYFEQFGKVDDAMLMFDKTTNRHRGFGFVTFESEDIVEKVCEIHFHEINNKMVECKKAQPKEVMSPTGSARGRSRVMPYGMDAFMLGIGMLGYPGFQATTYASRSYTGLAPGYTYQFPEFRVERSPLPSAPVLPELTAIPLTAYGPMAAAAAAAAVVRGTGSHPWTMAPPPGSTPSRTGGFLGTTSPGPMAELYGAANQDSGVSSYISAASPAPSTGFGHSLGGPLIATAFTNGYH
With B1, the binding signal was 0.368 enrichment R.

On to B2, for which the binding signal is 0.737 enrichment R.

B3: the binding signal is 0.763 enrichment R.

As to B4, the binding signal came out at 0.383 enrichment R.

B5 gave a binding signal of 0.989 enrichment R.

With B6, the binding signal was determined as 0.386 enrichment R.

Molecule B7 displayed a binding signal of 0.454 enrichment R.

Molecule B8 yielded a binding signal of 0.421 enrichment R.

For the molecule B9, the binding signal turned out to be 1.92 enrichment R.

Regarding B10, the binding signal stood at 69.1 enrichment R.

B11: the binding signal worked out at 0.557 enrichment R.

In turn, B12 displayed a binding signal of 0.5 enrichment R.

In turn, B13 showed a binding signal of 0.463 enrichment R.

B14 registered a binding signal of 0.715 enrichment R.

Values taken from publication PMC12136788.
